The results in this text go back to PubChem BioAssay AID1745853 (National Center for Advancing Translational Sciences (NCATS), 2022).

Test in all cases: Primary Screen for Target Class Profiling of Small Molecule Inhibitors of Methyltransferases
Experiment [1] concerns the target Glycine N-methyltransferase (Homo sapiens) (UniProt Q14749). The settings on record: purified enzyme, MTase-Glo SAH luminescence; measured here: GNMT inhibition; at 40 µM; stronger effect = lower value. A digest of the protocol:
(§1)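 Each enzyme was reacted with SAM and its substrate, with compounds tested once at 40 uM; SAH formed was read by MTase-Glo luminescence.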

Experiment [2] concerns the target Guanidinoacetate N-methyltransferase (Homo sapiens) (UniProt Q14353). To be noted: purified enzyme, MTase-Glo SAH luminescence; measured here: GAMT inhibition; at 40 µM; stronger effect = lower value. The procedure, abridged: as §1
The target of experiment [3] is Histamine N-methyltransferase (Homo sapiens) (UniProt P50135). The settings on record: purified enzyme, MTase-Glo SAH luminescence; measured here: HNMT inhibition; at 40 µM; stronger effect = lower value. The procedure, abridged: as §1
The target of experiment [4] is Nicotinamide N-methyltransferase (Homo sapiens) (UniProt P40261). The settings on record: purified enzyme, MTase-Glo SAH luminescence; measured here: NNMT inhibition; at 40 µM; stronger effect = lower value. The procedure, abridged: as §1
Experiment [5] deals with Phenylethanolamine N-methyltransferase (Homo sapiens) (UniProt P11086). To be noted: purified enzyme, MTase-Glo SAH luminescence; measured here: PNMT inhibition; at 40 µM; stronger effect = lower value. A digest of the protocol:
as §1

Some of the results follow. Further columns of the screen follow, without active or inactive calls.
On the % scale 0 is the no-effect control and ±100 the full control effect.

Consider `Cc1ccccc1N1C(=O)c2cc3ccccc3n2CC1(C)C(=O)NC1CCCC1` (stereo not given), for which the activity change, negative = inhibition was -4.75% in experiment [1]; 0% in experiment [2]; 0.726% in experiment [3]; 1.7% in experiment [4]; -0.345% in experiment [5].

Consider `COc1ccc2c(c1)OCC(C(=O)NCc1noc(-c3ccco3)n1)C2` (stereo not given), for which the activity change, negative = inhibition in experiment [1] was -3.52%; in experiment [2], 0.434%; in experiment [3] it was 0.89%; in experiment [4] it was -3.98%; in experiment [5], -13%.

For `O=[S+]1([O-])NC2(CCCN(Cc3c(F)cccc3Cl)C2)COc2ccccc21` (stereo not given), the activity change, negative = inhibition in experiment [1] was -73.9%; in experiment [2] it was -7.35%; in experiment [3], -3.48%; in experiment [4], -10.5%; in experiment [5], 0.776%.

As to `COC[C@@H]1CNC[C@H]1c1ccccn1`, the activity change, negative = inhibition in experiment [1] is -2.37%; in experiment [2], -4.08%; in experiment [3], 0.706%; in experiment [4], -0.822%; in experiment [5] it was 1.41%.

As to `CC(C)(C)c1cnc([C@@H]2COCCN2C2CCCCC2)[nH]1`, the activity change, negative = inhibition in experiment [1] was -6.8%; in experiment [2], -10%; in experiment [3] it was -24.8%; in experiment [4] it was -23.9%; in experiment [5] it was -11.4%.

With `COc1ccc(CNC(=O)c2ccc3c(=O)nc4c(-c5ccc(C)cc5)n[nH]n4c3c2)cc1`, the activity change, negative = inhibition is -21.6% in experiment [1]; -3.29% in experiment [2]; -9.25% in experiment [3]; -14.6% in experiment [4]; -10.3% in experiment [5].

Consider `COc1cccc(C(=O)NC2CCCN(c3ccc4nnc(C5CC5)n4n3)C2)c1` (stereo not given), for which the activity change, negative = inhibition in experiment [1] was -9.01%; in experiment [2], -4.18%; in experiment [3] it was -6.99%; in experiment [4] it was -24.1%; in experiment [5], -7.21%.

In the case of `COc1ccc(-c2n[nH]n3c2nc(=O)c2ccc(C(=O)NCc4ccccc4)cc23)cc1`, the activity change, negative = inhibition in experiment [1] is -12.9%; in experiment [2] it was 2.45%; in experiment [3], 3.04%; in experiment [4] it was 4.96%; in experiment [5], -2.24%.

Take `O=C1CC2(CCN(C(=O)C3CCCN3C(=O)c3ccc(Cl)nc3)CC2)Oc2ccccc2N1` (stereo not given): the activity change, negative = inhibition in experiment [1] was -4.02%; in experiment [2], -3.01%; in experiment [3], -1.62%; in experiment [4] it was -5.08%; in experiment [5], -1.67%.

Consider `COc1cc(Cc2cnc(N)nc2N)c(C(C)C)cc1OC`, for which the activity change, negative = inhibition in experiment [1] was 1.88%; in experiment [2] it was 2.82%; in experiment [3], 9.19%; in experiment [4], -12.5%; in experiment [5] it was 7.38%.

With `O=C1c2cc3occc3n2CC(C(=O)NC2CCCCCC2)(c2ccccc2)N1Cc1ccc(F)cc1` (stereo not given), the activity change, negative = inhibition in experiment [1] is -5.95%; in experiment [2], 0%; in experiment [3] it was -3.39%; in experiment [4] it was -10.1%; in experiment [5], -9.79%.

For the molecule `CCCCc1nc2c3ccccc3n(CC(=O)N3CCN(c4ccccc4OC)CC3)c(=O)n2n1`, the activity change, negative = inhibition came out at 13.6% in experiment [1]; 0.161% in experiment [2]; 11.4% in experiment [3]; 2.8% in experiment [4]; 7.51% in experiment [5].

`Nc1ncnc2c([C@@H]3N[C@H](CO)[C@@H](O)[C@H]3O)c[nH]c12`: the activity change, negative = inhibition in experiment [1] was 0.25%; in experiment [2], 0.781%; in experiment [3], 6.14%; in experiment [4], -11.2%; in experiment [5], -4.3%.

With `CC1(C(=O)NC2CCCCCCC2)Cc2ccccc2C(=O)N1C1CCCCC1` (stereo not given), the activity change, negative = inhibition in experiment [1] is -5.85%; in experiment [2], 4.12%; in experiment [3] it was 2.79%; in experiment [4], 4.45%; in experiment [5], -3.81%.

Consider `Cc1ccc(-c2nc(C3CC(=O)N(c4ccc(F)c(Cl)c4)C3)no2)cc1C` (stereo not given), for which the activity change, negative = inhibition in experiment [1] was -3.38%; in experiment [2] it was -3.73%; in experiment [3] it was -6.75%; in experiment [4] it was -9.97%; in experiment [5], -3.88%.

On to `CC(C)NC(=O)c1ccc2c(=O)n(C(C)C)c3nn(Cc4cccc(Cl)c4)c(=O)n3c2c1`, for which the activity change, negative = inhibition in experiment [1] was 0.524%; in experiment [2], 1.02%; in experiment [3], 6.84%; in experiment [4], -1.18%; in experiment [5], 5.54%.

For `CCCC1c2cccn2CCN1C(=O)NC1CCCCC1` (stereo not given), the activity change, negative = inhibition was -3.12% in experiment [1]; 1.4% in experiment [2]; -3.82% in experiment [3]; 6.63% in experiment [4]; 2.63% in experiment [5].

`O=C(c1ccco1)N1Cc2[nH]cnc2C[C@H]1c1nc(-c2ccncc2)no1`: the activity change, negative = inhibition in experiment [1] is -19.4%; in experiment [2], -12.9%; in experiment [3], -7.23%; in experiment [4], -21.6%; in experiment [5] it was -16.8%.

As for `COc1cccc(COC2CN(CC(C)C)C(=O)CN(C(=O)c3csc(C(C)=O)c3)C2)c1` (stereo not given), the activity change, negative = inhibition in experiment [1] was -0.603%; in experiment [2] it was 1.77%; in experiment [3], -1.05%; in experiment [4], -1.67%; in experiment [5], -2.41%.

On to `O=C1NCCCCCCN(C(=O)c2ccccn2)[C@H]2CCCC[C@@H]12`, for which the activity change, negative = inhibition in experiment [1] was -1.45%; in experiment [2], -1.22%; in experiment [3], -0.996%; in experiment [4], 1.9%; in experiment [5] it was 0.158%.

In the case of `CCN(CC)CCNC(=O)c1ccc2nc(-c3ccccc3)c(-c3ccc(CN4CCC(n5c(=O)[nH]c6ccccc65)CC4)cc3)nc2c1`, the activity change, negative = inhibition in experiment [1] is -17.2%; in experiment [2], 16%; in experiment [3] it was -29.9%; in experiment [4] it was -47.6%; in experiment [5], -1.38%.

Turning to `Cc1noc2c(N3CCOCC3)cc(-c3cccnc3)nc12`, the activity change, negative = inhibition was -4.28% in experiment [1]; 0.237% in experiment [2]; -0.914% in experiment [3]; -17.8% in experiment [4]; 1.21% in experiment [5].

With `N#Cc1ccc(CN2CCCC3(Cc4ccccc4NC3=O)C2)cc1` (stereo not given), the activity change, negative = inhibition in experiment [1] was -8.32%; in experiment [2] it was -6.47%; in experiment [3], -6.71%; in experiment [4], -15.8%; in experiment [5], -2.78%.

`COc1ccccc1-c1nnc2n(CCc3ccccc3)c(=O)c3ccccc3n12`: the activity change, negative = inhibition in experiment [1] is -3.27%; in experiment [2], 0%; in experiment [3], -1%; in experiment [4], -3.67%; in experiment [5], -1.68%.

Consider `c1ccc(-c2ccnc3nc(CCC4CCCC4)nn23)nc1`, for which the activity change, negative = inhibition in experiment [1] is -17.2%; in experiment [2] it was -8.66%; in experiment [3], -8.1%; in experiment [4], -37%; in experiment [5] it was -20.4%.

On to `CCOC(=O)CCC(=O)O[C@H]1[C@H](O[C@@H]2[C@@H](C)[C@H](O[C@H]3C[C@@](C)(OC)[C@@H](O)[C@H](C)O3)[C@@H](C)C(=O)O[C@H](CC)[C@@](C)(O)[C@H](O)[C@@H](C)C(=O)[C@H](C)CC2(C)O)O[C@H](C)C[C@@H]1N(C)C` (stereo not given in full), for which the activity change, negative = inhibition in experiment [1] was 7.11%; in experiment [2] it was 7.64%; in experiment [3], 5.72%; in experiment [4] it was -9.7%; in experiment [5], 3.98%.

Take `Cc1ccc(C)c(N2CCN(C(=O)CCc3nnc4n(CCc5ccccc5)c(=O)c5ccccc5n34)CC2)c1`: the activity change, negative = inhibition in experiment [1] is -1.83%; in experiment [2] it was 1.21%; in experiment [3], -8.01%; in experiment [4], -11.4%; in experiment [5], -2.99%.

For the molecule `CCCCCC(=O)N[C@H]1C[C@@H](Cc2cc(CN3CCOCC3)on2)C1(C)C`, the activity change, negative = inhibition in experiment [1] is -5.31%; in experiment [2], -11.5%; in experiment [3], -3.22%; in experiment [4], -7.29%; in experiment [5], -6.74%.

For the molecule `CC(Oc1cc(-n2cnc3ccc(CN4CCN(C)CC4)cc32)sc1C(N)=O)c1ccccc1C(F)(F)F` (stereo not given), the activity change, negative = inhibition in experiment [1] is -33.3%; in experiment [2], -8.21%; in experiment [3], -52.7%; in experiment [4], -41.2%; in experiment [5], -41%.

For `N#CCc1ccc(O)cc1O[C@@H]1O[C@H](CO)[C@@H](O)[C@H](O)[C@H]1O`, the activity change, negative = inhibition in experiment [1] is 0.191%; in experiment [2], 3.28%; in experiment [3] it was 7.46%; in experiment [4] it was -8.36%; in experiment [5], -4.43%.

For the molecule `Cc1cc(C)n(Cc2cc(C(=O)N(C)C(C)c3ccon3)n[nH]2)n1` (stereo not given), the activity change, negative = inhibition in experiment [1] is 0.384%; in experiment [2], 2.21%; in experiment [3] it was 0.751%; in experiment [4], -2.42%; in experiment [5], 0.149%.

As for `CC1(C(=O)NC2CCCCCC2)Cn2c(cc3occc32)C(=O)N1Cc1ccccc1Cl` (stereo not given), the activity change, negative = inhibition in experiment [1] is -0.263%; in experiment [2], 4.57%; in experiment [3], 3.26%; in experiment [4], 2.93%; in experiment [5] it was -2.56%.

With `CCOc1cc(=O)n2c(c1C(=O)NC1CCCC1)CCCCC2`, the activity change, negative = inhibition in experiment [1] is -4.42%; in experiment [2] it was -6.13%; in experiment [3], -2.92%; in experiment [4], -12.8%; in experiment [5], -7.13%.

`COc1cccc(CNc2nc3c(-c4ccc(C)cc4)nnn3c3ccccc23)c1`: the activity change, negative = inhibition is -0.16% in experiment [1]; 0% in experiment [2]; 4.87% in experiment [3]; -6.69% in experiment [4]; -0.811% in experiment [5].

With `O=C(Cn1nc2nc(Nc3ccc(F)cc3)ccn2c1=O)Nc1ccc2c(c1)OCCO2`, the activity change, negative = inhibition was -0.415% in experiment [1]; 0% in experiment [2]; 9.36% in experiment [3]; -7.47% in experiment [4]; -1.9% in experiment [5].

Turning to `CCCn1c(=O)c2ccc(C(=O)NC(C)C)cc2n2c(SCC(=O)Nc3ccccc3C)nnc12`, the activity change, negative = inhibition was 2.09% in experiment [1]; 0% in experiment [2]; 5.51% in experiment [3]; -1.06% in experiment [4]; 1.03% in experiment [5].

Consider `Cc1ccc(NC(=O)CSc2nnc3n(CCCOC(C)C)c(=O)c4ccccc4n23)c(Cl)c1`, for which the activity change, negative = inhibition is -11.4% in experiment [1]; 0% in experiment [2]; -2.12% in experiment [3]; -13.8% in experiment [4]; 0.353% in experiment [5].

Regarding `CCOc1ccc(CN2C(=O)c3cc4sccc4n3CC2(C)C(=O)NC2CCCCCCC2)cc1` (stereo not given), the activity change, negative = inhibition in experiment [1] is 1.87%; in experiment [2], 0%; in experiment [3], 4.67%; in experiment [4], -2.74%; in experiment [5] it was 1.39%.
